# Measurements reported in paper PMC12820563, “FoxP3 forms a head-to-head dimer in vivo and stabilizes its multimerization on adjacent microsatellites”.
# The other results are listed elsewhere or left out.
# Target: T1, MBP-FoxP1dN (Mus musculus, UniProt P58462 326-579)
# T1 sequence: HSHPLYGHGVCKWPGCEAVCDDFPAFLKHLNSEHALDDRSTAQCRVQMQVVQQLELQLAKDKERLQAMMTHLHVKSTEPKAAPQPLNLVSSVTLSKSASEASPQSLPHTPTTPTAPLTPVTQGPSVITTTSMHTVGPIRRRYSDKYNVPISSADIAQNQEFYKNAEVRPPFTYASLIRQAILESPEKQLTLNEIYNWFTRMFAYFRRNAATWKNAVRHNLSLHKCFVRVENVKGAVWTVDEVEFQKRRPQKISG
# Test: PD-seq (MBP pull-down with sequencing); 20 mM Tris-HCl pH 7.5, 100 mM NaCl, 1.5 mM MgCl2, 0.4 uM protein, 0.1 uM dsDNA library, 30 min, room temperature, amylose pull-down; high values mean tight binding
# Conditions: protein: recombinant; tags: His6-MBP; chain copies: 2; dsDNA, one strand shown
# Outline: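 Binding is given as reads-per-million enrichment, pull-down over input, with replicates pooled. The bait was an N-terminus-lacking mouse FoxP3 or FoxP1 fragment with a His6-MBP tag, expressed in E. coli and used at 0.4 µM with 0.1 µM Klenow-filled degenerate double-stranded DNA library for 30 min at room temperature in Tris pH 7.5 buffer with NaCl and MgCl2. Amylose resin pull-down with three washes was followed by proteinase K release, PCR barcoding and Illumina sequencing.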
row,Sequence,binding signal
1,GATGATTGTTCTCCCAGCTGATGAATTACTAAGGTCGAGTAAACAAATTTTCCTAATCTTTCTGTTCAAGCGCCATCTAC,1.03 RPM ratio (pull-down/input)
2,GATGATTGTTCTCCCAGCTGATGAATTATGTACGTCGAGTAAACAAATTTTCCTAATCTTTCTGTTCAAGCGCCATCTAC,1.26 RPM ratio (pull-down/input)
3,GATGATTGTTCTCCCAGCTGATGAATTCGTGCACTCGAGTAAACAAATTTTCCTAATCTTTCTGTTCAAGCGCCATCTAC,0.937 RPM ratio (pull-down/input)
4,GATGATTGTTCTCCCAGCTGATGAATTGGCTTTCTCGAGTAAACAAATTTTCCTAATCTTTCTGTTCAAGCGCCATCTAC,0.862 RPM ratio (pull-down/input)
5,GATGATTGTTCTCCCAGCTGATGAATTTTCTTTTTCGAGTAAACAAATTTTCCTAATCTTTCTGTTCAAGCGCCATCTAC,1.03 RPM ratio (pull-down/input)
6,GATGATTGTTCTCCCAGCTGATGAATTCTGATGTTCGAGTAAACAAATTTTCCTAATCTTTCTGTTCAAGCGCCATCTAC,1.22 RPM ratio (pull-down/input)
7,GATGATTGTTCTCCCAGCTGATGAATTAAACCGGTCGAGTAAACAAATTTTCCTAATCTTTCTGTTCAAGCGCCATCTAC,0.788 RPM ratio (pull-down/input)
8,GATGATTGTTCTCCCAGCTGATGAATTAATTGACTCGAGTAAACAAATTTTCCTAATCTTTCTGTTCAAGCGCCATCTAC,1.04 RPM ratio (pull-down/input)
9,GATGATTGTTCTCCCAGCTGATGAATTATGCACATCGAGTAAACAAATTTTCCTAATCTTTCTGTTCAAGCGCCATCTAC,1.34 RPM ratio (pull-down/input)
10,GATGATTGTTCTCCCAGCTGATGAATTAGGCAAGTCGAGTAAACAAATTTTCCTAATCTTTCTGTTCAAGCGCCATCTAC,0.913 RPM ratio (pull-down/input)
11,GATGATTGTTCTCCCAGCTGATGAATTTCGAACCTCGAGTAAACAAATTTTCCTAATCTTTCTGTTCAAGCGCCATCTAC,0.816 RPM ratio (pull-down/input)
12,GATGATTGTTCTCCCAGCTGATGAATTACTTAGTTCGAGTAAACAAATTTTCCTAATCTTTCTGTTCAAGCGCCATCTAC,1.11 RPM ratio (pull-down/input)
13,GATGATTGTTCTCCCAGCTGATGAATTCGGTCTATCGAGTAAACAAATTTTCCTAATCTTTCTGTTCAAGCGCCATCTAC,0.854 RPM ratio (pull-down/input)
14,GATGATTGTTCTCCCAGCTGATGAATTGTAAACATCGAGTAAACAAATTTTCCTAATCTTTCTGTTCAAGCGCCATCTAC,2.78 RPM ratio (pull-down/input)
15,GATGATTGTTCTCCCAGCTGATGAATTGTACAAGTCGAGTAAACAAATTTTCCTAATCTTTCTGTTCAAGCGCCATCTAC,1.05 RPM ratio (pull-down/input)
16,GATGATTGTTCTCCCAGCTGATGAATTACCTTGTTCGAGTAAACAAATTTTCCTAATCTTTCTGTTCAAGCGCCATCTAC,0.988 RPM ratio (pull-down/input)
17,GATGATTGTTCTCCCAGCTGATGAATTTCTGAGGTCGAGTAAACAAATTTTCCTAATCTTTCTGTTCAAGCGCCATCTAC,0.736 RPM ratio (pull-down/input)
18,GATGATTGTTCTCCCAGCTGATGAATTTTTTGGATCGAGTAAACAAATTTTCCTAATCTTTCTGTTCAAGCGCCATCTAC,0.952 RPM ratio (pull-down/input)
19,GATGATTGTTCTCCCAGCTGATGAATTTCATCTGTCGAGTAAACAAATTTTCCTAATCTTTCTGTTCAAGCGCCATCTAC,0.729 RPM ratio (pull-down/input)
20,GATGATTGTTCTCCCAGCTGATGAATTTAAGGTATCGAGTAAACAAATTTTCCTAATCTTTCTGTTCAAGCGCCATCTAC,0.985 RPM ratio (pull-down/input)

row,Sequence,binding signal
1,GATGATTGTTCTCCCAGCTGATGAATTGTCTATTTCGAGTAAACAAATTTTCCTAATCTTTCTGTTCAAGCGCCATCTAC,1.31 RPM ratio (pull-down/input)
2,GATGATTGTTCTCCCAGCTGATGAATTACTGGGGTCGAGTAAACAAATTTTCCTAATCTTTCTGTTCAAGCGCCATCTAC,0.865 RPM ratio (pull-down/input)
3,GATGATTGTTCTCCCAGCTGATGAATTAACGCGGTCGAGTAAACAAATTTTCCTAATCTTTCTGTTCAAGCGCCATCTAC,0.904 RPM ratio (pull-down/input)
4,GATGATTGTTCTCCCAGCTGATGAATTATGACATTCGAGTAAACAAATTTTCCTAATCTTTCTGTTCAAGCGCCATCTAC,1.12 RPM ratio (pull-down/input)
5,GATGATTGTTCTCCCAGCTGATGAATTATTCGAGTCGAGTAAACAAATTTTCCTAATCTTTCTGTTCAAGCGCCATCTAC,0.911 RPM ratio (pull-down/input)
6,GATGATTGTTCTCCCAGCTGATGAATTGGGGCGCTCGAGTAAACAAATTTTCCTAATCTTTCTGTTCAAGCGCCATCTAC,0.789 RPM ratio (pull-down/input)
7,GATGATTGTTCTCCCAGCTGATGAATTCTAGTAATCGAGTAAACAAATTTTCCTAATCTTTCTGTTCAAGCGCCATCTAC,1.37 RPM ratio (pull-down/input)
8,GATGATTGTTCTCCCAGCTGATGAATTCGGTGCATCGAGTAAACAAATTTTCCTAATCTTTCTGTTCAAGCGCCATCTAC,1.21 RPM ratio (pull-down/input)
9,GATGATTGTTCTCCCAGCTGATGAATTGCAGGGGTCGAGTAAACAAATTTTCCTAATCTTTCTGTTCAAGCGCCATCTAC,0.992 RPM ratio (pull-down/input)
10,GATGATTGTTCTCCCAGCTGATGAATTTAGCCATTCGAGTAAACAAATTTTCCTAATCTTTCTGTTCAAGCGCCATCTAC,0.994 RPM ratio (pull-down/input)
11,GATGATTGTTCTCCCAGCTGATGAATTGATATATTCGAGTAAACAAATTTTCCTAATCTTTCTGTTCAAGCGCCATCTAC,1.14 RPM ratio (pull-down/input)
12,GATGATTGTTCTCCCAGCTGATGAATTTCACGGTTCGAGTAAACAAATTTTCCTAATCTTTCTGTTCAAGCGCCATCTAC,0.789 RPM ratio (pull-down/input)
13,GATGATTGTTCTCCCAGCTGATGAATTCGCCCGATCGAGTAAACAAATTTTCCTAATCTTTCTGTTCAAGCGCCATCTAC,0.901 RPM ratio (pull-down/input)
14,GATGATTGTTCTCCCAGCTGATGAATTTTAGGTATCGAGTAAACAAATTTTCCTAATCTTTCTGTTCAAGCGCCATCTAC,0.978 RPM ratio (pull-down/input)
15,GATGATTGTTCTCCCAGCTGATGAATTTGTGGAGTCGAGTAAACAAATTTTCCTAATCTTTCTGTTCAAGCGCCATCTAC,1 RPM ratio (pull-down/input)
16,GATGATTGTTCTCCCAGCTGATGAATTGACCGGGTCGAGTAAACAAATTTTCCTAATCTTTCTGTTCAAGCGCCATCTAC,0.833 RPM ratio (pull-down/input)
17,GATGATTGTTCTCCCAGCTGATGAATTGTACCGGTCGAGTAAACAAATTTTCCTAATCTTTCTGTTCAAGCGCCATCTAC,0.886 RPM ratio (pull-down/input)
18,GATGATTGTTCTCCCAGCTGATGAATTCTGGAGCTCGAGTAAACAAATTTTCCTAATCTTTCTGTTCAAGCGCCATCTAC,0.732 RPM ratio (pull-down/input)
19,GATGATTGTTCTCCCAGCTGATGAATTAATCGACTCGAGTAAACAAATTTTCCTAATCTTTCTGTTCAAGCGCCATCTAC,0.641 RPM ratio (pull-down/input)
20,GATGATTGTTCTCCCAGCTGATGAATTGGGAACTTCGAGTAAACAAATTTTCCTAATCTTTCTGTTCAAGCGCCATCTAC,0.868 RPM ratio (pull-down/input)
